Measurements published in the supplement of paper PMC12230231.

Tested on: SIVsab (simian immunodeficiency virus of sabaeus monkeys), single-cycle GFP reporter, in CRFK cells
Assay: enrichment among infected cells over input (fold); higher = weaker restriction
Settings: library: human / rhesus combinations
Experimental: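 Pools of CRFK cells expressing variants of the TRIM5α v1 loop were challenged with the single-cycle reporter, sorted by GFP and sequenced; mean of two replicates.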

| Sequence | enrichment |
| --- | --- |
| MASGILLNVKEEVTCPICLELLTEPLSLHCGHSFCQACITANHKKSMLYKEGERSCPVCRISYQPENIQPNRHVANIVEKLREVKLSPEEGQKVDHCARHGEKLLLFCQEDSKVICWLCERSQEHRGHHTFLMEEVAQEYHVKLQTALEMLRQKQQEAEKLEADIREEKASWKIQIDYDKTNVSADFEQLREILDWEESNELQNLEKEEEDILKSLTKSETEMVQQTQYMRELISELEHRLQGSMMDLLQGVDGIIKRIENMTLKKPKTFHKNQRRVFRAPDLKGMLDMFRELTDARRYWVDVTLAPNNISHAVIAEDKRQVSSRNPQIMYGARGTLFQSFTNFNYCTGVLGSQSITSGKHYWEVDVSKKSAWILGVCAGFQSDAMYNIEQNENYQPKYGYWVIGLQEGVKYSVFQDGSSHTPFAPFIVPLSVIICPDRVGVFVDYEACTVSFFNITNHGFLIYKFSQCSFSKPVFPYLNPRKCTVPMTLCSPSS [rhesus TRIM5α, 332-344 = GARGTLFQSFT] | 2.63 ± 2.4 |
| MASGILLNVKEEVTCPICLELLTEPLSLHCGHSFCQACITANHKKSMLYKEGERSCPVCRISYQPENIQPNRHVANIVEKLREVKLSPEEGQKVDHCARHGEKLLLFCQEDSKVICWLCERSQEHRGHHTFLMEEVAQEYHVKLQTALEMLRQKQQEAEKLEADIREEKASWKIQIDYDKTNVSADFEQLREILDWEESNELQNLEKEEEDILKSLTKSETEMVQQTQYMRELISELEHRLQGSMMDLLQGVDGIIKRIENMTLKKPKTFHKNQRRVFRAPDLKGMLDMFRELTDARRYWVDVTLAPNNISHAVIAEDKRQVSSRNPQIMYQAPGTRYTFPSFVNFNYCTGVLGSQSITSGKHYWEVDVSKKSAWILGVCAGFQSDAMYNIEQNENYQPKYGYWVIGLQEGVKYSVFQDGSSHTPFAPFIVPLSVIICPDRVGVFVDYEACTVSFFNITNHGFLIYKFSQCSFSKPVFPYLNPRKCTVPMTLCSPSS [rhesus TRIM5α, 332-344 = QAPGTRYTFPSFV] | 1.68 ± 1.3 |
| MASGILLNVKEEVTCPICLELLTEPLSLHCGHSFCQACITANHKKSMLYKEGERSCPVCRISYQPENIQPNRHVANIVEKLREVKLSPEEGQKVDHCARHGEKLLLFCQEDSKVICWLCERSQEHRGHHTFLMEEVAQEYHVKLQTALEMLRQKQQEAEKLEADIREEKASWKIQIDYDKTNVSADFEQLREILDWEESNELQNLEKEEEDILKSLTKSETEMVQQTQYMRELISELEHRLQGSMMDLLQGVDGIIKRIENMTLKKPKTFHKNQRRVFRAPDLKGMLDMFRELTDARRYWVDVTLAPNNISHAVIAEDKRQVSSRNPQIMYGAPGTRFTFPSFTNFNYCTGVLGSQSITSGKHYWEVDVSKKSAWILGVCAGFQSDAMYNIEQNENYQPKYGYWVIGLQEGVKYSVFQDGSSHTPFAPFIVPLSVIICPDRVGVFVDYEACTVSFFNITNHGFLIYKFSQCSFSKPVFPYLNPRKCTVPMTLCSPSS [rhesus TRIM5α, 332-344 = GAPGTRFTFPSFT] | 0.991 ± 0.29 |
| MASGILLNVKEEVTCPICLELLTEPLSLHCGHSFCQACITANHKKSMLYKEGERSCPVCRISYQPENIQPNRHVANIVEKLREVKLSPEEGQKVDHCARHGEKLLLFCQEDSKVICWLCERSQEHRGHHTFLMEEVAQEYHVKLQTALEMLRQKQQEAEKLEADIREEKASWKIQIDYDKTNVSADFEQLREILDWEESNELQNLEKEEEDILKSLTKSETEMVQQTQYMRELISELEHRLQGSMMDLLQGVDGIIKRIENMTLKKPKTFHKNQRRVFRAPDLKGMLDMFRELTDARRYWVDVTLAPNNISHAVIAEDKRQVSSRNPQIMYGAPGTLFTFQTFTNFNYCTGVLGSQSITSGKHYWEVDVSKKSAWILGVCAGFQSDAMYNIEQNENYQPKYGYWVIGLQEGVKYSVFQDGSSHTPFAPFIVPLSVIICPDRVGVFVDYEACTVSFFNITNHGFLIYKFSQCSFSKPVFPYLNPRKCTVPMTLCSPSS [rhesus TRIM5α, 332-344 = GAPGTLFTFQTFT] | 1.26 ± 0.35 |
| MASGILLNVKEEVTCPICLELLTEPLSLHCGHSFCQACITANHKKSMLYKEGERSCPVCRISYQPENIQPNRHVANIVEKLREVKLSPEEGQKVDHCARHGEKLLLFCQEDSKVICWLCERSQEHRGHHTFLMEEVAQEYHVKLQTALEMLRQKQQEAEKLEADIREEKASWKIQIDYDKTNVSADFEQLREILDWEESNELQNLEKEEEDILKSLTKSETEMVQQTQYMRELISELEHRLQGSMMDLLQGVDGIIKRIENMTLKKPKTFHKNQRRVFRAPDLKGMLDMFRELTDARRYWVDVTLAPNNISHAVIAEDKRQVSSRNPQIMYQAPGTLYTFQTLVNFNYCTGVLGSQSITSGKHYWEVDVSKKSAWILGVCAGFQSDAMYNIEQNENYQPKYGYWVIGLQEGVKYSVFQDGSSHTPFAPFIVPLSVIICPDRVGVFVDYEACTVSFFNITNHGFLIYKFSQCSFSKPVFPYLNPRKCTVPMTLCSPSS [rhesus TRIM5α, 332-344 = QAPGTLYTFQTLV] | 0.806 ± 0.26 |
| MASGILLNVKEEVTCPICLELLTEPLSLHCGHSFCQACITANHKKSMLYKEGERSCPVCRISYQPENIQPNRHVANIVEKLREVKLSPEEGQKVDHCARHGEKLLLFCQEDSKVICWLCERSQEHRGHHTFLMEEVAQEYHVKLQTALEMLRQKQQEAEKLEADIREEKASWKIQIDYDKTNVSADFEQLREILDWEESNELQNLEKEEEDILKSLTKSETEMVQQTQYMRELISELEHRLQGSMMDLLQGVDGIIKRIENMTLKKPKTFHKNQRRVFRAPDLKGMLDMFRELTDARRYWVDVTLAPNNISHAVIAEDKRQVSSRNPQIMYGAPGTLYTFQSFVNFNYCTGVLGSQSITSGKHYWEVDVSKKSAWILGVCAGFQSDAMYNIEQNENYQPKYGYWVIGLQEGVKYSVFQDGSSHTPFAPFIVPLSVIICPDRVGVFVDYEACTVSFFNITNHGFLIYKFSQCSFSKPVFPYLNPRKCTVPMTLCSPSS [rhesus TRIM5α, 332-344 = GAPGTLYTFQSFV] | 1.02 ± 0.21 |
| MASGILLNVKEEVTCPICLELLTEPLSLHCGHSFCQACITANHKKSMLYKEGERSCPVCRISYQPENIQPNRHVANIVEKLREVKLSPEEGQKVDHCARHGEKLLLFCQEDSKVICWLCERSQEHRGHHTFLMEEVAQEYHVKLQTALEMLRQKQQEAEKLEADIREEKASWKIQIDYDKTNVSADFEQLREILDWEESNELQNLEKEEEDILKSLTKSETEMVQQTQYMRELISELEHRLQGSMMDLLQGVDGIIKRIENMTLKKPKTFHKNQRRVFRAPDLKGMLDMFRELTDARRYWVDVTLAPNNISHAVIAEDKRQVSSRNPQIMYGARGTLYTFPSLVNFNYCTGVLGSQSITSGKHYWEVDVSKKSAWILGVCAGFQSDAMYNIEQNENYQPKYGYWVIGLQEGVKYSVFQDGSSHTPFAPFIVPLSVIICPDRVGVFVDYEACTVSFFNITNHGFLIYKFSQCSFSKPVFPYLNPRKCTVPMTLCSPSS [rhesus TRIM5α, 332-344 = GARGTLYTFPSLV] | 3.02 ± 3.1 |
| MASGILLNVKEEVTCPICLELLTEPLSLHCGHSFCQACITANHKKSMLYKEGERSCPVCRISYQPENIQPNRHVANIVEKLREVKLSPEEGQKVDHCARHGEKLLLFCQEDSKVICWLCERSQEHRGHHTFLMEEVAQEYHVKLQTALEMLRQKQQEAEKLEADIREEKASWKIQIDYDKTNVSADFEQLREILDWEESNELQNLEKEEEDILKSLTKSETEMVQQTQYMRELISELEHRLQGSMMDLLQGVDGIIKRIENMTLKKPKTFHKNQRRVFRAPDLKGMLDMFRELTDARRYWVDVTLAPNNISHAVIAEDKRQVSSRNPQIMYQAPGTLFTFQTFVNFNYCTGVLGSQSITSGKHYWEVDVSKKSAWILGVCAGFQSDAMYNIEQNENYQPKYGYWVIGLQEGVKYSVFQDGSSHTPFAPFIVPLSVIICPDRVGVFVDYEACTVSFFNITNHGFLIYKFSQCSFSKPVFPYLNPRKCTVPMTLCSPSS [rhesus TRIM5α, 332-344 = QAPGTLFTFQTFV] | 1.25 ± 0.086 |
| MASGILLNVKEEVTCPICLELLTEPLSLHCGHSFCQACITANHKKSMLYKEGERSCPVCRISYQPENIQPNRHVANIVEKLREVKLSPEEGQKVDHCARHGEKLLLFCQEDSKVICWLCERSQEHRGHHTFLMEEVAQEYHVKLQTALEMLRQKQQEAEKLEADIREEKASWKIQIDYDKTNVSADFEQLREILDWEESNELQNLEKEEEDILKSLTKSETEMVQQTQYMRELISELEHRLQGSMMDLLQGVDGIIKRIENMTLKKPKTFHKNQRRVFRAPDLKGMLDMFRELTDARRYWVDVTLAPNNISHAVIAEDKRQVSSRNPQIMYQAPGTRFPSFVNFNYCTGVLGSQSITSGKHYWEVDVSKKSAWILGVCAGFQSDAMYNIEQNENYQPKYGYWVIGLQEGVKYSVFQDGSSHTPFAPFIVPLSVIICPDRVGVFVDYEACTVSFFNITNHGFLIYKFSQCSFSKPVFPYLNPRKCTVPMTLCSPSS [rhesus TRIM5α, 332-344 = QAPGTRFPSFV] | 1.59 ± 0.71 |
| MASGILLNVKEEVTCPICLELLTEPLSLHCGHSFCQACITANHKKSMLYKEGERSCPVCRISYQPENIQPNRHVANIVEKLREVKLSPEEGQKVDHCARHGEKLLLFCQEDSKVICWLCERSQEHRGHHTFLMEEVAQEYHVKLQTALEMLRQKQQEAEKLEADIREEKASWKIQIDYDKTNVSADFEQLREILDWEESNELQNLEKEEEDILKSLTKSETEMVQQTQYMRELISELEHRLQGSMMDLLQGVDGIIKRIENMTLKKPKTFHKNQRRVFRAPDLKGMLDMFRELTDARRYWVDVTLAPNNISHAVIAEDKRQVSSRNPQIMYQAPGTRYTFPSLVNFNYCTGVLGSQSITSGKHYWEVDVSKKSAWILGVCAGFQSDAMYNIEQNENYQPKYGYWVIGLQEGVKYSVFQDGSSHTPFAPFIVPLSVIICPDRVGVFVDYEACTVSFFNITNHGFLIYKFSQCSFSKPVFPYLNPRKCTVPMTLCSPSS [rhesus TRIM5α, 332-344 = QAPGTRYTFPSLV] | 1.1488 ± 0.00057 |
| MASGILLNVKEEVTCPICLELLTEPLSLHCGHSFCQACITANHKKSMLYKEGERSCPVCRISYQPENIQPNRHVANIVEKLREVKLSPEEGQKVDHCARHGEKLLLFCQEDSKVICWLCERSQEHRGHHTFLMEEVAQEYHVKLQTALEMLRQKQQEAEKLEADIREEKASWKIQIDYDKTNVSADFEQLREILDWEESNELQNLEKEEEDILKSLTKSETEMVQQTQYMRELISELEHRLQGSMMDLLQGVDGIIKRIENMTLKKPKTFHKNQRRVFRAPDLKGMLDMFRELTDARRYWVDVTLAPNNISHAVIAEDKRQVSSRNPQIMYGAPGTLYTFQTLTNFNYCTGVLGSQSITSGKHYWEVDVSKKSAWILGVCAGFQSDAMYNIEQNENYQPKYGYWVIGLQEGVKYSVFQDGSSHTPFAPFIVPLSVIICPDRVGVFVDYEACTVSFFNITNHGFLIYKFSQCSFSKPVFPYLNPRKCTVPMTLCSPSS [rhesus TRIM5α, 332-344 = GAPGTLYTFQTLT] | 0.782 ± 0.38 |
| MASGILLNVKEEVTCPICLELLTEPLSLHCGHSFCQACITANHKKSMLYKEGERSCPVCRISYQPENIQPNRHVANIVEKLREVKLSPEEGQKVDHCARHGEKLLLFCQEDSKVICWLCERSQEHRGHHTFLMEEVAQEYHVKLQTALEMLRQKQQEAEKLEADIREEKASWKIQIDYDKTNVSADFEQLREILDWEESNELQNLEKEEEDILKSLTKSETEMVQQTQYMRELISELEHRLQGSMMDLLQGVDGIIKRIENMTLKKPKTFHKNQRRVFRAPDLKGMLDMFRELTDARRYWVDVTLAPNNISHAVIAEDKRQVSSRNPQIMYQAPGTRYTFPTFVNFNYCTGVLGSQSITSGKHYWEVDVSKKSAWILGVCAGFQSDAMYNIEQNENYQPKYGYWVIGLQEGVKYSVFQDGSSHTPFAPFIVPLSVIICPDRVGVFVDYEACTVSFFNITNHGFLIYKFSQCSFSKPVFPYLNPRKCTVPMTLCSPSS [rhesus TRIM5α, 332-344 = QAPGTRYTFPTFV] | 1.6 ± 0.77 |

± gives the standard deviation of the averaged measurements. Restriction of a single-cycle SIVsab GFP reporter by TRIM5α v1-loop variants in CRFK cells. Human variants: read share among cells still uninfected after two challenges over input, higher = gained restriction. Rhesus variants: share among infected cells over input, higher = lost restriction. Reporter dose not given per row. No active / inactive call per row; the paper calls a change when both replicates lie above its controls (mean + 2 SD of stop or wild-type variants, or the top frameshift score). Residues outside the varied loop are taken from Swiss-Prot. The paper reads the human single-substitution scores as noise; they and the rhesus combinations repeat poorly (rank correlation 0.3 to 0.4), indel scores repeat only for the top variants, rhesus substitutions well (0.9).
